40 compounds from the supplement of paper PMC8007513 can be followed below.

Counter-ions that a name gives are not always drawn. ± gives the standard error. The whole screen tested about 1,300 compounds, of which about 75 (6%) showed an effect of 50% or more. The list shows a part of the results.

The test system of the experiment is Trichoderma virens ATCC 9645. As to the kind of experiment: growth yield (OD600) relative to untreated control; higher = less growth inhibition. The note with it: compound concentration: 100 uM. An outline of the steps:
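Growth appears as means of duplicate screens, relative to the control containing neither agent. To obtain it, OD600 was read on a BioTek EL800 at 40 h and 72 h. The cultures were 100 μl aliquots in 96-well plates at 30 °C, holding Trichoderma virens ATCC 9645 spores at 15,000 spores ml^−1 in potato dextrose broth, library compounds at 100 μM final, and, in some wells, a biocide at 200 ng ml^−1.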

On to `CN(c1nccc(=O)[nH]1)C1CCN(c2nc3ccccc3n2Cc2ccc(F)cc2)CC1` [Mizolastine], for which the growth yield reads like this: (40 h) 94.5 ± 2.4%; (72 h) 96 ± 2.6%.
On the same counts, the results for `OC(CNCC(O)C1CCc2cc(F)ccc2O1)C1CCc2cc(F)ccc2O1` (stereo not given) [Nebivolol hydrochloride] are 95 ± 16% and 114 ± 14%.
The like results for `CC[C@H](C)[C@H](N)C1=N[C@H](C(=O)N[C@@H](CC(C)C)C(=O)N[C@H](CCC(=O)O)C(=O)N[C@H](C(=O)N[C@H]2CCCCNC(=O)[C@H](CC(N)=O)NC(=O)[C@@H](CC(=O)O)NC(=O)[C@H](Cc3cnc[nH]3)NC(=O)[C@@H](Cc3ccccc3)NC(=O)[C@H]([C@@H](C)CC)NC(=O)[C@@H](CCCN)NC2=O)[C@@H](C)CC)CS1` [Bacitracin] were, in that order, 114 ± 2.2% and 110 ± 1.3%.
With `CN1CCN(CCCN2c3ccccc3Sc3ccc(C(F)(F)F)cc32)CC1` [Trifluoperazine dihydrochloride], the growth yield reads like this: (40 h) 20 ± 0.95%; (72 h) 63.35 ± 0.42%.
Regarding `COc1ccc(OC)c(C(O)CNC(=O)CN)c1` (stereo not given) [Midodrine hydrochloride], the growth yield is, setting by setting: (40 h) 101.8 ± 0.16%; (72 h) 105 ± 0.73%.
On the same counts, the results for `CN(C)CCN1C(=O)c2ccccc2N(C)c2ccccc21` [Dibenzepine hydrochloride] are 101 ± 1.8% and 105 ± 3%.
The like results for `CN(C(=O)C(Cl)Cl)c1ccc(OC(=O)c2ccco2)cc1` [Diloxanide furoate] were, in that order, 91.3 ± 4% and 91.1 ± 2.4%.
With `Nc1ccn([C@H]2CC[C@@H](CO)O2)c(=O)n1` [Zalcitabine], the growth yield was 102 ± 1.4% (40 h) and 95.3 ± 1.4% (72 h).
The like results for `CC(=O)c1ccc2c(c1)N(CCCN(C)C)c1ccccc1S2` [Acetopromazine maleate salt] were, in that order, 109 ± 5.9% and 111 ± 4.1%.
On to `CN(C)CCOC(C)(c1ccccc1)c1ccccn1` (stereo not given) [Doxylamine succinate], for which the growth yield by setting is: (40 h) 98.2 ± 1.6%; (72 h) 96.5 ± 1.1%.
In the case of `Oc1c(I)cc(Cl)c2cccnc12` [Clioquinol], the growth yield reads like this: (40 h) 18.3 ± 7.8%; (72 h) 12.9 ± 5.3%.
On the same counts, the results for `CC(C)(C#N)c1cc(Cn2cncn2)cc(C(C)(C)C#N)c1` [Anastrozole] are 96.3 ± 1.3% and 91 ± 1.7%.
On the same counts, the results for `C(=C\c1ccccc1)/CN1CCN(C(c2ccccc2)c2ccccc2)CC1` [Cinnarizine] are 86.1 ± 4.1% and 104 ± 1.6%.
The like results for `O=C(C1CCCCC1)N1CC(=O)N2CCc3ccccc3C2C1` (stereo not given) [Praziquantel] were, in that order, 85.5 ± 2.9% and 86.1 ± 3.9%.
With `CN1CCC(=C2c3ccccc3CCc3cccnc32)CC1` [Azatadine maleate], the growth yield came out at 107 ± 7.9% (40 h) and 104 ± 4.2% (72 h).
With `Nc1nc2ccc(OC(F)(F)F)cc2s1` [Riluzole hydrochloride], the growth yield reads like this: (40 h) 52.3 ± 1.1%; (72 h) 54.2 ± 1.1%.
On to `COc1ccc2c(c1)c(CC(=O)O)c(C)n2C(=O)c1ccc(Cl)cc1` [Indomethacin], for which the growth yield reads like this: (40 h) 86.6 ± 3.3%; (72 h) 92.7 ± 7.1%.
The like results for `CC(C)(C)NCC(O)COc1cccc2c1CCC(=O)N2` (stereo not given) [Carteolol hydrochloride] were, in that order, 106 ± 3.3% and 106 ± 1.3%.
On to `C=C1c2c(Cl)ccc(O)c2C(=O)C2=C(O)[C@]3(O)C(=O)C(C(N)=O)=C(O)[C@@H](N(C)C)[C@@H]3[C@@H](O)[C@H]12.O=C(O)c1cc(S(=O)(=O)O)ccc1O` [Meclocycline sulfosalicylate], for which the growth yield runs as follows: (40 h) 96.1 ± 12%; (72 h) 91.5 ± 6.3%.
On the same counts, the results for `CC(=O)NCCCS(=O)(=O)O` [Acamprosate calcium] are 98.32 ± 0.48% and 95.9 ± 1.7%.
On the same counts, the results for `CCOC(=O)O[C@]1(C(=O)COC(=O)CC)CC[C@H]2[C@@H]3CCC4=CC(=O)C=C[C@]4(C)[C@H]3[C@@H](O)C[C@@]21C` [Prednicarbate] are 118 ± 3% and 114 ± 2.8%.
As for `CC(C(=O)O)c1ccc2c(c1)[nH]c1ccc(Cl)cc12` (stereo not given) [Carprofen], the growth yield is, setting by setting: (40 h) 40.7 ± 15%; (72 h) 88.9 ± 8%.
On the same counts, the results for `CCCCc1cc2ccccc2c(OCCN(C)C)n1` [Dimethisoquin hydrochloride] are 97.4 ± 4.3% and 97.3 ± 4.4%.
With `Cc1cccc(C)c1NC(=O)C(C)N` (stereo not given) [Tocainide hydrochloride], the growth yield is 106 ± 7.2% (40 h) and 102 ± 4% (72 h).
The like results for `Cc1ccccc1C(=O)Nc1ccc(C(=O)N2CCCC(O)c3cc(Cl)ccc32)c(C)c1` (stereo not given) [Tolvaptan] were, in that order, 110 ± 7.6% and 110 ± 2.1%.
The like results for `CN(C)C(=O)C(CCN1CCC(O)(c2ccc(Cl)cc2)CC1)(c1ccccc1)c1ccccc1` [Loperamide hydrochloride] were, in that order, 98.48 ± 0.32% and 105 ± 1.3%.
The like results for `O=C(OCC(O)CO)c1ccccc1Nc1ccnc2cc(Cl)ccc12` (stereo not given) [Glafenine hydrochloride] were, in that order, 97.1 ± 1.4% and 98.3 ± 1.8%.
Compound `CC(C(=O)O)c1ccc(-c2ccccc2)c(F)c1` (stereo not given) [Flurbiprofen] gave a growth yield (40 h) of 72.9 ± 3% and a growth yield (72 h) of 86.5 ± 3.9%.
On the same counts, the results for `C[C@H]1O[C@@H](O[C@H]2[C@@H](O)C[C@H](O[C@H]3[C@@H](O)C[C@H](O[C@H]4CC[C@@]5(C)[C@H](CC[C@@H]6[C@@H]5C[C@@H](O)[C@]5(C)[C@@H](C7=CC(=O)OC7)CC[C@]65O)C4)O[C@@H]3C)O[C@@H]2C)C[C@H](O)[C@@H]1O` [Digoxin] are 102.8 ± 0.16% and 103.2 ± 0.84%.
Take `COc1cc([S+](C)[O-])ccc1-c1nc2cccnc2[nH]1` (stereo not given) [Sulmazole]: the growth yield worked out at 99.4 ± 2.2% (40 h) and 98 ± 1.7% (72 h).
The like results for `Nc1nc(CC(=O)Nc2ccc(CCNC[C@H](O)c3ccccc3)cc2)cs1` [Mirabegron] were, in that order, 100 ± 8.6% and 96.8 ± 6.6%.
The like results for `NC[C@@H]1O[C@H](O[C@H]2[C@@H](O)[C@H](O[C@@H]3[C@@H](O)[C@H](N)C[C@H](N)[C@H]3O[C@H]3O[C@H](CO)[C@@H](O)[C@H](O)[C@H]3N)O[C@@H]2CO)[C@H](N)[C@@H](O)[C@@H]1O` [Paromomycin sulfate] were, in that order, 102.6 ± 0.32% and 96.59 ± 0.32%.
On the same counts, the results for `COc1ccccc1OCC(O)CO` (stereo not given) [Guaifenesin] are 102 ± 6.3% and 97.1 ± 2.7%.
On to `CC(=O)[C@H]1CC[C@H]2[C@@H]3C=CC4=CC(=O)CC[C@@]4(C)[C@@H]3CC[C@]12C` [Dydrogesterone], for which the growth yield (40 h) came out at 78.3 ± 1.1% and the growth yield (72 h) worked out at 79.9 ± 2.1%.
On the same counts, the results for `CN1[C@@H]2CC[C@H]1C[C@@H](OC(=O)c1c[nH]c3ccccc13)C2` [Tropisetron hydrochloride] are 104 ± 10% and 104 ± 8.6%.
On the same counts, the results for `N#Cc1cc(NC(=O)C(=O)O)c(Cl)c(NC(=O)C(=O)O)c1` [Lodoxamide] are 106 ± 5.2% and 99.4 ± 3.8%.
On the same counts, the results for `Cc1cccc(C)c1OCC(C)N` (stereo not given) [Mexiletine hydrochloride] are 102 ± 1.8% and 101.9 ± 0.84%.
As for `COc1ccc(/C=C/C(=O)Nc2ccccc2C(=O)O)cc1OC` [Tranilast], the growth yield runs as follows: (40 h) 88.2 ± 1.1%; (72 h) 97.7 ± 2.9%.
The like results for `CCOC(=O)C1=C(COCCN)NC(C)=C(C(=O)OC)C1c1ccccc1Cl` (stereo not given) [Amlodipine] were, in that order, 105 ± 12% and 113 ± 11%.
Compound `Oc1c(Cl)cc(Cl)c(Cl)c1Cc1c(O)c(Cl)cc(Cl)c1Cl` [Hexachlorophene] yielded a growth yield (40 h) of 25.3 ± 2.1% and a growth yield (72 h) of 98.9 ± 5.8%.
